According to paper PMC8174033:
These are yes or no findings as the source states them, for the method shown. In cells and extracts the contact can be indirect. Some entries that bind do so weakly or less than the wild type. Where a sequence is shown, tags or fusion partners need not be part of it.

Amino acid sequences for entries named in this document (tags omitted). A change or cut given only in a name is not applied to a line headed by its entry. Chains listed by the source or under a name are the forms on record and can include a tag or linker. Residues count along the entry.
UniProt Q14194: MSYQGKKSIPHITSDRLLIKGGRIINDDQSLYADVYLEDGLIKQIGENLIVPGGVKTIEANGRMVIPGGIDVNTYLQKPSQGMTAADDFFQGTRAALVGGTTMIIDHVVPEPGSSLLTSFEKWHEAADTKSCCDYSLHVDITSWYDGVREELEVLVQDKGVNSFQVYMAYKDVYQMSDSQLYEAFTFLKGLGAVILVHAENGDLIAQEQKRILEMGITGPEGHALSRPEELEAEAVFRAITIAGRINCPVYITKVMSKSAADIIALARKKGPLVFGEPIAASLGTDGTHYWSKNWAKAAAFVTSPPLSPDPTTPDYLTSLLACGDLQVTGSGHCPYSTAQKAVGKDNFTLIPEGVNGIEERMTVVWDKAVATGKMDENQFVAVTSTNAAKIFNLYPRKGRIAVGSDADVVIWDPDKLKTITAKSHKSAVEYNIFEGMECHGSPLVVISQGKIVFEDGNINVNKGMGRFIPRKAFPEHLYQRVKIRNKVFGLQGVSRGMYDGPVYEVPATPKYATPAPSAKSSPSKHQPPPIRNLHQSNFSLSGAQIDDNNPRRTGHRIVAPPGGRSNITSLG
CRMP1 (amino acids 1-462), N-terminal and central amidohydrolase family domain, EmGFP-tagged: residues 1-462 of Q14194
CRMP1 (amino acids 465-572), C-terminal region, EmGFP-tagged: residues 465-572 of Q14194
UniProt P63045: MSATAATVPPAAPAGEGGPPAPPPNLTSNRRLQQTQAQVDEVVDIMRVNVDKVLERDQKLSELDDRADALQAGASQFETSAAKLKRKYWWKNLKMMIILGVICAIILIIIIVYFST
UniProt P43146, residues 26-1447: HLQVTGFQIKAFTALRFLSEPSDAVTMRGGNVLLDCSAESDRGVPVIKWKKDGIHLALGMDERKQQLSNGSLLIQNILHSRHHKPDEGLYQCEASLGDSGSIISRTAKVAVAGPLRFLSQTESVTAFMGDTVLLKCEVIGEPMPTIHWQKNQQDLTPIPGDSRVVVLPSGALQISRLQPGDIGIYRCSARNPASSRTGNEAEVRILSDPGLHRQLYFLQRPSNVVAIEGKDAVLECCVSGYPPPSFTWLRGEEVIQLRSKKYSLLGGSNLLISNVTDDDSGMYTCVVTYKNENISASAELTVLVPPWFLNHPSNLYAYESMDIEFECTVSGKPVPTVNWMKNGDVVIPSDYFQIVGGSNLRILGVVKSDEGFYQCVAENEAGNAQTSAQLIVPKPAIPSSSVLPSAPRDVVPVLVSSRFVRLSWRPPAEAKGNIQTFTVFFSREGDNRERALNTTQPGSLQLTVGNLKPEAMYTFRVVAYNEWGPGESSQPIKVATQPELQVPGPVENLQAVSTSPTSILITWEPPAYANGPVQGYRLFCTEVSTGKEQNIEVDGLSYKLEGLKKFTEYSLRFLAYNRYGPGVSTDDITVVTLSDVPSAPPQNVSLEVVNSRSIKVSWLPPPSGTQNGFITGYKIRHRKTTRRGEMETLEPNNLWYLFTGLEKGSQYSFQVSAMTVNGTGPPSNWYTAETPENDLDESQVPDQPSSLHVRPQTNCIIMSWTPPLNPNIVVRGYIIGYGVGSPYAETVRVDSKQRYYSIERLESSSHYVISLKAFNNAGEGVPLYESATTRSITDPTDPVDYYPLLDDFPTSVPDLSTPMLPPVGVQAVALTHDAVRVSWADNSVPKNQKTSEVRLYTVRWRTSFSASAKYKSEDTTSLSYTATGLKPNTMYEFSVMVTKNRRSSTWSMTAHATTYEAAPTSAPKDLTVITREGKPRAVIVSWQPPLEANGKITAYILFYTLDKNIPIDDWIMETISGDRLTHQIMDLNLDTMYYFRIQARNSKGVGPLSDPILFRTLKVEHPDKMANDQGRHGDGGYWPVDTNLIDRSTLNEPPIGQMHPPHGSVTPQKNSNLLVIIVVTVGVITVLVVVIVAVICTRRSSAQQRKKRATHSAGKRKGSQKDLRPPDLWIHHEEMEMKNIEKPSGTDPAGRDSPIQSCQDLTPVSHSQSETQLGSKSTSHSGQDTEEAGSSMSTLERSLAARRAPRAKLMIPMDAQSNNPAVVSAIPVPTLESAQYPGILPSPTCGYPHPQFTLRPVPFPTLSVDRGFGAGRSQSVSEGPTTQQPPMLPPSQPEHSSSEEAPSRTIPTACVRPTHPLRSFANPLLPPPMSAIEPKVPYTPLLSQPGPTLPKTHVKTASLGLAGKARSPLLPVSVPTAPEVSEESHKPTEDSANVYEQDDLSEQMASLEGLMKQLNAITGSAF

Key:
[1] = biological target: CRMP1 (amino acids 465-572), C-terminal region, EmGFP-tagged (human) (UniProt Q14194); assay: co-IP; HEK293 cells co-expressing the two tagged proteins, 24 h after transfection; lysis and washes in 50 mM HEPES, 150 mM NaCl, 1 mM EDTA, 1% Triton X-100, pH 7.2; GFP-Trap agarose beads 1-3 h at 4°C; immunoblot
[2] = biological target: CRMP1 (amino acids 1-462), N-terminal and central amidohydrolase family domain, EmGFP-tagged (human) (UniProt Q14194); assay: as above
[3] = biological target: collapsin response mediator protein 1 (CRMP1), full-length, EmGFP-tagged (human) (UniProt Q14194); assay: as above
[4] = biological target: VAMP2, GFP-tagged (UniProt P63045); assay: as above
[5] = biological target: deleted in colorectal cancer (DCC), EmGFP-tagged (human) (UniProt P43146); assay: co-IP; HEK293 cells expressing three proteins together (EmGFP-DCC, FLAG-FEZ1, Myc-Stx1); HEPES lysis buffer with 1% Triton X-100; GFP-Trap; immunoblot

B1: fasciculation and elongation protein zeta 1 (FEZ1), full-length, FLAG-tagged (protein, UniProt Q99689 1-392)
chain: MEAPLVSLDEEFEDLRPSCSEDPEEKPQCFYGSSPHHLEDPSLSELENFSSEIISFKSMEDLVNEFDEKLNVCFRNYNAKTENLAPVKNQLQIQEEEETLQDEEVWDALTDNYIPSLSEDWRDPNIEALNGNCSDTEIHEKEEEEFNEKSENDSGINEEPLLTADQVIEEIEEMMQNSPDPEEEEEVLEEEDGGETSSQADSVLLQEMQALTQTFNNNWSYEGLRHMSGSELTELLDQVEGAIRDFSEELVQQLARRDELEFEKEVKNSFITVLIEVQNKQKEQRELMKKRRKEKGLSLQSSRIEKGNQMPLKRFSMEGISNILQSGIRQTFGSSGTDKQYLNTVIPYEKKASPPSVEDLQMLTNILFAMKEDNEKVPTLLTDYILKVLCPT
In the case of B1, the binding [1] is reported as “binds weakly”, the binding [2] is reported as “binds” and the binding [3] is reported as “binds”. For the same binder, the binding [4] was “binds” and the binding [5] was “binds”.
